Where a chain is given by its changes, count along the chain named.
Columns and labels:
Experiment in all cases: cell-based or functional assay
recombinant human IL-4 = molecular target: T1, recombinant human IL-4 (human, UniProt P05112 25-153)
T1 sequence (looked up): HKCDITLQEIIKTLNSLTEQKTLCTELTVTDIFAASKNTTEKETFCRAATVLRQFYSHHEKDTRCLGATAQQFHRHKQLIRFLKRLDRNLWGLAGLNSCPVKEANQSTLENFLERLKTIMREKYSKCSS

recombinant human IL-13 = recombinant human IL-13 (human, UniProt P35225 partial chain)
recombinant human IL-12 = molecular target: T2, recombinant human IL-12 (human, UniProt P29459 23-219; P29460 23-328)
T2 sequence (looked up) 1: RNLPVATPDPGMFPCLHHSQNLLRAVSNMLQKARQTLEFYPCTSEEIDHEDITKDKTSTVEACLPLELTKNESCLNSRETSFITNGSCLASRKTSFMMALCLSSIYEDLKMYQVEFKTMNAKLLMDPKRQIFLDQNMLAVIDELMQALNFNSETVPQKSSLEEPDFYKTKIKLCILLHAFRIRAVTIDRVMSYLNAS
T2 sequence (looked up) 2: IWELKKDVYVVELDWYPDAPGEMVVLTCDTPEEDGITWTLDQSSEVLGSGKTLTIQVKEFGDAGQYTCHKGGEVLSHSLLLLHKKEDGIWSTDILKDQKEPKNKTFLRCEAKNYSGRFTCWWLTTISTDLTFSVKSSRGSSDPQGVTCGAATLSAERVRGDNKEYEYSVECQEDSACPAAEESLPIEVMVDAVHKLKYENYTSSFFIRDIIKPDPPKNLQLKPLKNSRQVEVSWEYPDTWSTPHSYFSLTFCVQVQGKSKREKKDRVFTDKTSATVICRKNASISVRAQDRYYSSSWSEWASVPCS

Sequence of recombinant human IL-13 (P35225 35-146 limits assumed): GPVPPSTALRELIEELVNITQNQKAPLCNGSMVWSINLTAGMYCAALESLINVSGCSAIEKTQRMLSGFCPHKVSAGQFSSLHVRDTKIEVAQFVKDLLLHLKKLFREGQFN

B1: IL413p40-0043 (other)
heavy: EVTLRESGPALVKPTQTLTLTCTFSGFSLSNFGEGLSWIRQPPGKGLEWLAHIYWDDDKRYNPSLKSRLTISKDTSRNQVVLTMTNMDPVDTATYYCARRETVFYWYFDVWGQGTTVTVSSASTKGPSVFPEAPSSKSTSGGTAALGCLVKDYFPEPVTVSWNSGALTSGVHTFPAVLQSSGLYSLGSVVTVPSSSLGTQTYICNVNHKPSNTKVDKKVEPKSCDKTHTCPPCPAPEAAGAPSVFLFPPKPKDTLMISRTPEVTCVVVDVSHEDPEVKFNWYVDGVEVHNAKTKPREEQYNSTYRVVSVLTVLHQDWLNGKEYKCKVSNKALPAPIEKTISKAKGQPREPQVYTLPPCREEMTKNQVSLSCAVKGFYPSDIAVEWESNGQPENNYKTTPPVLDSDGSFFLVSKLTVDKSRWQQGNVFSCSVMHEALHNHYTQKSLSLSPGK
chain 1: [about 200 residues not written out]GGGGSEVQLVESGGGLVQPGGSLRLSCAASGFTFSSYAMSWVRQAPGKGLEWVASISSGDTTYYPDSVKGRFTISRDNAKNSLYLQMNSLRAEDTAVYYCARNEGYYFGLTLWGQGTLVTVSSASTKGPSVFPKAPSSKSTSGGTAALGCLVKDYFPEPVTVSWNSGALTSGVHTFPAVLQSSGLYSLSSSVTVPSSSLGTQTYICNVNHKPSNTKVDKKVEPKSCDKTHTCPPCPAPEAAGAPSVFLFPPKPKDTLMISRTPEVTCVVVDVSHEDPEVKFNWYVDGVEVHNAKTKPREEQYNSTYRVVSVLTVLHQDWLNGKEYKCKVSNKALPAPIEKTISKAKGQPREPQVCTLPPSREEMTKNQVSLWCLVKGFYPSDIAVEWESNGQPENNYKTTPPVLDSDGSFFLYSKLTVDKSRWQQGNVFSCSVMHEALHNHYTQKSLSLSPGK
light 1: DIQMTQSPSSLSASVGDRVTITCKASQSVDEDGDSYMNWYQQKPGKAPKLLIYAASNLESGVPSRFSGSGSGTDFTLTISSLQPEDFATYYCQQSNEDPPTFGGGTKVEIKRTVAAPSVFIFPPSDEQLKSGTASVSCLLNNFYPREAKVQWKVDNALQSGNSQESVTEQDSKDSTYSLKSTLTLSKADYEKHKVYACEVTHQGLSSPVTKSFNRGEC
light 2: B1 light 1 with Q27E, E31H, D32F, D34W, Y36L, M37V, N38H, A54R, P100W, K180D
chain 2: EVQLVQSGAEVKKPGESLKISCKGSGYSFTTYWLGWVRQMPGKGLDWIGIMSPVDSDIRYSPSFQGQVTMSVDKSITTAYLQWNSLKASDTAMYYCARRRPGQGYFDFWGQGTLVTVSSASTKGPSVFPLAPSSKSTSGGTAALGCLVKDYFPEPVTVSWNSGALTSGVHTFPAVLQSSGLYSLSSVVTVPSSSLGTQTYICNVNHKPSNTKVDKKVEPKSC
IL-4 induced CD23 upregulation (IC50), Tri-Fab-Fc (recombinant human IL-4): 0.0051 nM | IL-13 induced CD23 upregulation (IC50), Tri-Fab-Fc (recombinant human IL-13): 0.0151 nM | IL-12 induced STAT4 phosphorylation (IC50), Tri-Fab-Fc (recombinant human IL-12): 2.61 nM

B2: IL413p40-0044 (other)
heavy: EVQLVESGGGLVQPGGSLRLSCAASGFTFSSYAMSWVRQAPGKGLEWVASISSGDTTYYPDSVKGRFTISRDNAKNSLYLQMNSLRAEDTAVYYCARNEGYYFGLTLWGQGTLVTVSSASTKGPSVFPKAPSSKSTSGGTAALGCLVKDYFPEPVTVSWNSGALTSGVHTFPAVLQSSGLYSLSSSVTVPSSSLGTQTYICNVNHKPSNTKVDKKVEPKSCDKTHTCPPCPAPEAAGAPSVFLFPPKPKDTLMISRTPEVTCVVVDVSHEDPEVKFNWYVDGVEVHNAKTKPREEQYNSTYRVVSVLTVLHQDWLNGKEYKCKVSNKALPAPIEKTISKAKGQPREPQVCTLPPSREEMTKNQVSLWCLVKGFYPSDIAVEWESNGQPENNYKTTPPVLDSDGSFFLYSKLTVDKSRWQQGNVFSCSVMHEALHNHYTQKSLSLSPGK
chain 1: [about 200 residues not written out]GGGGSEVTLRESGPALVKPTQTLTLTCTFSGFSLSNFGEGLSWIRQPPGKGLEWLAHIYWDDDKRYNPSLKSRLTISKDTSRNQVVLTMTNMDPVDTATYYCARRETVFYWYFDVWGQGTTVTVSSASTKGPSVFPEAPSSKSTSGGTAALGCLVKDYFPEPVTVSWNSGALTSGVHTFPAVLQSSGLYSLGSVVTVPSSSLGTQTYICNVNHKPSNTKVDKKVEPKSCDKTHTCPPCPAPEAAGAPSVFLFPPKPKDTLMISRTPEVTCVVVDVSHEDPEVKFNWYVDGVEVHNAKTKPREEQYNSTYRVVSVLTVLHQDWLNGKEYKCKVSNKALPAPIEKTISKAKGQPREPQVYTLPPCREEMTKNQVSLSCAVKGFYPSDIAVEWESNGQPENNYKTTPPVLDSDGSFFLVSKLTVDKSRWQQGNVFSCSVMHEALHNHYTQKSLSLSPGK
light 1: B1 light 1 with Q27E, E31H, D32F, D34W, Y36L, M37V, N38H, A54R, P100W, K180D
light 2: B1 light 1
chain 2: B1 chain 2
IL-4 induced CD23 upregulation (IC50), Tri-Fab-Fc (recombinant human IL-4): 0.00811 nM | IL-13 induced CD23 upregulation (IC50), Tri-Fab-Fc (recombinant human IL-13): 0.00914 nM | IL-12 induced STAT4 phosphorylation (IC50), Tri-Fab-Fc (recombinant human IL-12): 3.03 nM

From US20240117030A1 (Pfizer, published 2024)
